Reference: the supplement of paper PMC9446081
Out of some 39,000 compounds screened, about 220 (0.56%) showed activity. This is one part of the list.

tested on: Escherichia coli K-12 BW25113; test: relative growth (OD600 normalised to plate interquartile mean) (fraction); higher = less growth inhibition, active = 0.2 or less; settings: 50 µM; LB; incubation time: overnight (16-24 h)
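Also: static incubation at 37 °C against the wild-type strain, values averaged over two biological replicates.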

| Compound | relative growth |
| --- | --- |
| C[C@@H]1CN([C@@H](C)CO)C(=O)Cc2cc(NC(=O)Cc3ccccc3)ccc2O[C@@H]1CN(C)Cc1ccc(C(F)(F)F)cc1 | inactive: 0.987 |
| COC1C=CC23c4cc5c(cc4CN(CC2O)C3C1)OCO5 (stereo not drawn) | inactive: 1.1 |
| C[C@@H]1CCCCO[C@H](CN(C)CC2CCCCC2)[C@H](C)CN([C@H](C)CO)C(=O)c2cc(NC(=O)CCC(F)(F)F)ccc2O1 | inactive: 1 |
| C(=N\c1ccccc1)/c1ccc(Oc2ccccc2)cc1 | inactive: 1.05 |
| Cc1cnc(C(=O)Nc2nn[nH]n2)cn1 | inactive: 1.04 |
| C[C@H]1CCCCO[C@H](CN(C)CC2CC2)[C@@H](C)CN([C@@H](C)CO)C(=O)c2cc(NC(=O)CCC(F)(F)F)ccc2O1 | inactive: 0.99 |
| Cc1ccc(-c2cc(C(F)(F)F)nn2-c2ccc(S(N)(=O)=O)cc2)cc1 | inactive: 0.811 |
| O=C1c2ccccc2C(=O)c2c(O)c(O)cc(O)c21 | inactive: 1.05 |
| C#CC1(O)CCC2C3CCC4=CC(=O)CCC4C3CCC21CC (stereo not drawn) | inactive: 1.15 |
| CCOC(=O)C1=C(N)C(=O)N(CCCN2CCOCC2)C1 | inactive: 1.02 |
| CN(C)c1nc(N)nc(CSc2nnnn2C)n1 | inactive: 0.999 |
| COc1ccc(NC(=O)N(C)C[C@@H]2OCc3ccccc3-c3c(n(C)c4ccccc34)C(=O)N([C@H](C)CO)C[C@@H]2C)cc1 | inactive: 0.981 |
| O=C(C[C@@H]1CC[C@H]2[C@@H](COC[C@@H](O)CN2Cc2cc(F)ccc2F)O1)N[C@@H]1CCN(Cc2ccccc2)C1 | inactive: 0.985 |
| COc1ccc(NC(=O)Nc2ccc3c(c2)C(=O)N([C@@H](C)CO)C[C@@H](C)[C@H](CN(C)Cc2ccncc2)OCCCC[C@H](C)O3)cc1 | inactive: 1.02 |
| C[C@H](CO)N1C[C@H](C)[C@@H](CN(C)Cc2ccc3c(c2)OCO3)Oc2ccc(NC(=O)C3CC3)cc2C1=O | inactive: 1.01 |
| COCC(=O)N1C[C@H](C)[C@H](OC)CN(C)C(=O)c2ccc(NC(=O)Nc3cccc(F)c3)cc2OC[C@H]1C | inactive: 1.01 |
| O=C(CCCCCNC(=O)OCCCOc1ccc(C2=N[C@@]3(Cc4ccccc4N(CCS(=O)(=O)c4ccccc4)C3=O)[C@H](c3ccccc3)O2)cc1)NO | inactive: 1.02 |
| COc1ccc(S(=O)(=O)N(C)C[C@H]2Oc3ccc(NS(=O)(=O)c4ccccc4)cc3C(=O)N([C@H](C)CO)C[C@@H]2C)cc1 | inactive: 0.997 |
| O=C(C[C@@H]1C[C@@H]2c3cc(NC(=O)Nc4ccc(C(F)(F)F)cc4)ccc3O[C@@H]2[C@H](CO)O1)NCCc1ccccc1 | inactive: 0.947 |
| Cc1cc(N)n2ncnc2n1 | inactive: 1.01 |
| C[C@@H]1CCCCO[C@@H](CN(C)C(=O)Nc2ccccc2)[C@H](C)CN([C@H](C)CO)C(=O)c2cc(NS(=O)(=O)c3ccc(F)cc3)ccc2O1 | inactive: 1.04 |
| CNC(=N)NCCC[C@@H](N)C(=O)O | inactive: 1 |

| Compound | relative growth |
| --- | --- |
| O=C(NCc1ccccc1)C1=C[C@H](c2ccc(Br)cc2)C[C@H](OCc2ccc(CO)cc2)O1 | inactive: 0.893 |
| CCS(=O)(=O)N1C[C@]2(CN(C2)C(=O)Nc2ccc(cc2)F)c2c(n(c3cc(ccc23)OC)C)[C@H]1CO | inactive: 1 |
| CCCCCCc1nc(-c2ccc(-c3ccc(Cl)c(Cl)c3)o2)cc2c1[Si](C(C)C)(C(C)C)O[C@H]2c1ccccc1 | inactive: 0.983 |
| Cc1ccc(S(=O)(=O)Nc2ccc3c(c2)C(=O)N([C@H](C)CO)C[C@@H](C)[C@H](CN(C)C(=O)Nc2ccc(C(F)(F)F)cc2)O3)cc1 | inactive: 1.04 |
| C[C@@H]1CN([C@H](C)CO)C(=O)c2cc(NC(=O)Cc3ccccc3)ccc2O[C@@H](C)CCCCO[C@@H]1CN(C)CC1CCCCC1 | inactive: 1.01 |
| C[C@@H]1CCCCO[C@@H](CN(C)Cc2ccc(Cl)c(Cl)c2)[C@@H](C)CN([C@H](C)CO)C(=O)c2cc(NC(=O)Nc3ccc(F)cc3)ccc2O1 | inactive: 1.01 |
| Nc1ccc(S(=O)(=O)Nc2nccs2)cc1 | inactive: 1.05 |
| COc1ccc(S(=O)(=O)Nc2ccc3c(c2)CC(=O)N([C@H](C)CO)C[C@H](C)[C@@H](CN(C)S(=O)(=O)c2ccccc2)O3)cc1 | inactive: 0.988 |
| O=C(NCc1ccc(Oc2ccccc2)cc1)c1nc(-c2cc(Br)c(O)c(Br)c2)no1 | inactive: 0.967 |
| C[C@H]1CN([C@@H](C)CO)S(=O)(=O)c2ccc(C#Cc3ccncc3)cc2O[C@H]1CN(C)C(=O)C1CCCCC1 | inactive: 1.05 |
| CC(C)CNC(=O)C[C@H]1NCCNC1=O | inactive: 0.923 |
| C[C@H](CO)N1C[C@H](C)[C@H](CN(C)Cc2ccc(C(=O)Nc3ccccc3N)cc2)Oc2c(NS(C)(=O)=O)cccc2C1=O | inactive: 0.99 |
| C[C@@H]1CCCCO[C@@H](CN(C)S(=O)(=O)c2ccccc2)[C@@H](C)CN([C@@H](C)CO)C(=O)c2cc(NC(=O)Nc3ccc4c(c3)OCO4)ccc2O1 | inactive: 1 |
| Cn1c(=O)c(=O)n(C)c2cc(S(=O)(=O)CCC(=O)NCc3ccccc3)ccc21 | inactive: 0.958 |
| CCC(=O)N(C)C[C@H]1Oc2ncc(C#C[C@@H](C)O)cc2C(=O)N([C@H](C)CO)C[C@H]1C | inactive: 1.01 |
| COc1ccc(S(=O)(=O)N(C)C[C@H]2OCCCC[C@H](C)Oc3ccc(NC(=O)NC4CCCCC4)cc3C(=O)N([C@@H](C)CO)C[C@@H]2C)cc1 | inactive: 1.04 |
| C[C@@H]1CN([C@@H](C)CO)C(=O)Cc2cc(NS(C)(=O)=O)ccc2O[C@@H]1CN(C)C(=O)Nc1ccc(F)cc1 | inactive: 0.993 |
| CC[C@@H](C)SSc1ncc[nH]1 | inactive: 0.906 |
| COc1ccc(NC(=O)N(C)C[C@H]2OCCCC[C@@H](C)Oc3ccc(NS(=O)(=O)c4ccc(OC)cc4)cc3C(=O)N([C@@H](C)CO)C[C@H]2C)cc1 | inactive: 1.04 |
| Cn1cnc(S(=O)(=O)N[C@@H]2C=C[C@@H](CC(=O)NCC3CC3)O[C@@H]2CO)c1 | inactive: 1.01 |
| COCC#Cc1ccc2c(c1)O[C@@H](CN(C)Cc1ccc(F)cc1)[C@@H](C)CN([C@H](C)CO)S2(=O)=O | inactive: 1.03 |
